From PubChem BioAssay AID485294 (National Center for Advancing Translational Sciences (NCATS), 2010)
The campaign covered roughly 370,000 compounds. About 150 (0.041%) were called active. Inconclusive means that the source gave no clear call. Such entries were picked first, then a sample of the others. Calls come from the whole dose curve; as a rule, active = well fitted inhibition curve with a large enough effect; inconclusive = small, poorly fitted or top-dose-only effect; inactive = flat fitted curve, though single readings scatter. No potency is given beside an inconclusive call; the fits are too rough.

Biological target: Beta-lactamase (Escherichia coli (strain K12)) (UniProt P00811)
Chain of UniProt P00811 (P00811 whole entry, looked up): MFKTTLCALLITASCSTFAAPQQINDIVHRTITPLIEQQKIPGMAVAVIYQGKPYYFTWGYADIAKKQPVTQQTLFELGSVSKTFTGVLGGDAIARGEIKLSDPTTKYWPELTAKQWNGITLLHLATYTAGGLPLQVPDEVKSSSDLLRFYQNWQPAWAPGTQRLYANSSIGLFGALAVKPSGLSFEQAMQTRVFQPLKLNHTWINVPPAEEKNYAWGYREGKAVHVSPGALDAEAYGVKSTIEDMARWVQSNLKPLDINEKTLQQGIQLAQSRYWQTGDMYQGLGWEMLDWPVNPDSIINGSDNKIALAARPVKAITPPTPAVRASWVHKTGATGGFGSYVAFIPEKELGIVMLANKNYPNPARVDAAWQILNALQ
Assay: qHTS Inhibitors of AmpC Beta-Lactamase (assay with detergent); note: nearly all actives have a fitted effect of over 25% in size;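 for activity change, negative = inhibition: 0% = no-compound wells and -100% = no-enzyme wells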
Conditions: AmpC hydrolysis of nitrocefin, absorbance 480 nm, 0.01% Triton; activity change, negative = inhibition: at 114 µM (top of the series)
Outline: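 AmpC (5.3 nM in the dispensed reagent) in 20 mM phosphate pH 7.0 with 0.01% (detergent screen) or 0.0001% Triton X-100 was preincubated with compounds for 15 min at room temperature. Nitrocefin was then added from an 800 uM solution, and hydrolysis was followed at 480 nm.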
Potency is the fitted concentration of half-maximal effect; tags give direction and shape of the fitted curve.

| Compound | Potency | activity change, negative = inhibition |
| --- | --- | --- |
| O=C(NC1CCS(=O)(=O)C1)C1CCCC1 (stereo not given) | inconclusive [inhibitor, full curve, poor fit] | – |
| CN(C)CCCC(C)(O)C(C)(C)c1ccccc1 (stereo not given) | inconclusive [inhibitor, full curve, poor fit] | – |
| COc1cccc(N/C(N)=N/c2nc(CSc3ccccn3)cc(=O)[nH]2)c1 | – | inactive: 1.43% |
| CC(C)c1ccc(N2C(=O)C(Cl)=C(N3CCOCC3)C2=O)cc1 | – | inactive: -11.3% |
| CCN(Cc1ccncc1)Cc1c(O)ccc2cc(Br)ccc12 | – | inactive: -3.89% |
| COc1cccc(NC(=O)CN(C)C(=O)CN2C(=O)c3ccc([N+](=O)[O-])cc3C2=O)c1 | inconclusive [inhibitor, full curve, poor fit] | – |
| Cc1cc2cc(CN(CC3CCCO3)C(=S)Nc3ccccc3)c(=O)[nH]c2cc1C (stereo not given) | – | inactive: -8.78% |
| COc1ccc(OCC(=O)NNC(=S)NC(=O)C2CC2)cc1 | inconclusive [inhibitor, single point] | – |
| Cc1ccc(S(=O)(=O)NCC(=O)OCC(=O)c2c(N)n(C)c(=O)n(C)c2=O)cc1 | inconclusive [inhibitor, full curve, poor fit] | – |
| COc1ccc(N=C2SC(C(=O)Nc3ccc(OC)cc3)CC(=O)N2CCN2CCOCC2)cc1 (stereo not given) | – | inactive: -1.28% |
| COc1ccc(NC(=O)CN(c2ccc(OC)c(Cl)c2)S(=O)(=O)c2ccccc2)cc1 | inconclusive [inhibitor, full curve, poor fit] | – |
| COc1cccc(NC(=O)CNC(=O)[C@@H]2Cc3ccccc3CN2C(=O)OC(C)(C)C)c1 | inconclusive [inhibitor, full curve, poor fit] | – |
| CN(Cc1cccnc1)C(=O)CNC(=O)c1ccc(Cl)cc1Cl | – | inactive: 1.93% |
| O=C1CCC(C(=O)Nc2ccc(OC(F)F)cc2)N1 (stereo not given) | inconclusive [inhibitor, partial curve, poor fit] | – |
| COc1ccc(Cl)cc1NC(=O)CN(C)C(C)C(=O)NC(=O)NC1CCCCC1 (stereo not given) | – | inactive: -16.8% |
| O=C(CC12CC3CC(CC(C3)C1)C2)NCc1ccccc1 | inconclusive [inhibitor, full curve, poor fit] | – |
| O=C(Nc1nc(-c2ccccc2)cs1)c1cccnc1 | – | inactive: -9.38% |
| O=C(NC12CC3CC(CC(C3)C1)C2)c1ccc([N+](=O)[O-])cc1 | inconclusive [inhibitor, partial curve, poor fit] | – |
| Fc1ccc(NC(=S)Nc2cccc3ccccc23)cc1 | inconclusive [inhibitor, partial curve, poor fit] | – |
| COc1ccccc1-c1nc2s/c(=C\c3cccs3)c(=O)n2n1 | inconclusive [inhibitor, single point] | – |
| COc1cc(/C=C2\CCc3ccccc3C2=O)cc(OC)c1OC | – | inactive: -7.06% |
| CCCCCCNC(=O)CC(NS(=O)(=O)c1ccc(OC)cc1)C(C)C (stereo not given) | inconclusive [inhibitor, full curve] | – |
| CCCC1Cc2c(sc3ncnc(N)c23)CO1 (stereo not given) | inconclusive [inhibitor, full curve, poor fit] | – |

| Compound | Potency | activity change, negative = inhibition |
| --- | --- | --- |
| Clc1ccc(-c2noc(CCCc3ccccc3)n2)cc1 | inconclusive [inhibitor, full curve, poor fit] | – |
| O=S(=O)(/N=C(/Nc1ccc(F)c(F)c1F)c1ccccc1)c1ccccc1 | – | inactive: -2.21% |
| CCOc1ccccc1NC(=O)Cn1c(-c2ccc(Cl)cc2)noc1=O | inconclusive [inhibitor, full curve] | – |
| O=C(COC(=O)C1(c2ccc(F)cc2)CCCC1)N1CCN(C(=O)c2ccco2)CC1 | inconclusive [inhibitor, full curve, poor fit] | – |
| O=C(COC(=O)c1ccco1)Nc1ccc2c(c1)OCCO2 | inconclusive [inhibitor, partial curve, poor fit] | – |
| COc1ccc(N2CCC(CNC(=O)Nc3ccc(C)c(C)c3)C2)cc1 (stereo not given) | inconclusive [inhibitor, full curve, poor fit] | – |
| Cc1ccc(NS(=O)(=O)c2ccc(-c3ccc(=O)[nH]n3)o2)c(C)c1 | inconclusive [inhibitor, single point] | – |
| O=C(CCn1c(=O)oc2ccccc21)Nc1nc2ccccc2s1 | inconclusive [inhibitor, partial curve, poor fit] | – |
| C/C=C/C(=O)OCC(=O)Nc1cc(OC)c([N+](=O)[O-])cc1C | – | inactive: 0.582% |
| CC(=O)c1ccc(N2CCN(C(=O)c3cccc(Oc4ccccc4)c3)CC2)cc1 | inconclusive [inhibitor, partial curve] | – |
| N#Cc1c(NC(=O)CSc2nnc(-c3ccncc3)n2CC2CCCO2)sc2c1CCCC2 (stereo not given) | inconclusive [inhibitor, partial curve, poor fit] | – |
| COc1ccc(NC(=O)CC2Nc3ccccc3NC2=O)cc1 (stereo not given) | – | inactive: 8.59% |
| O=C(/C=N\O)NCCCNCc1ccccc1 | – | inactive: -13.7% |
| C/C(Cn1nnc([N+](=O)[O-])n1)=N\NC(=O)c1ccncc1 | – | inactive: -5.14% |
| CCOc1ccc(-c2nnc(N(CC)C(=O)C3CCC3)s2)cc1 | inconclusive [inhibitor, partial curve] | – |
| COc1ccccc1C(CCN(Cc1cccs1)C(C)=O)c1ccco1 (stereo not given) | inconclusive [inhibitor, full curve] | – |
| CC(=O)Nc1ccc2c(c1)N(C(C)=O)c1ccccc1CC2 | – | inactive: -0.436% |
| O=C(c1ccc(Br)cc1)c1sc(N2CCOCC2)nc1-c1ccccc1 | – | inactive: -2.05% |
| CC1CCN(c2nc(Cl)nc(Nc3ccc([N+](=O)[O-])cc3)n2)CC1 | inconclusive [inhibitor, full curve, poor fit] | – |
| C#CCSc1nnnn1-c1cccc(Cl)c1 | – | inactive: 3.32% |
| COc1ccc(-n2c(SCC(=O)NCc3ccccc3)nc3c([nH]c4ccccc43)c2=O)cc1 | – | inactive: 6.47% |
| O=C(NC1CC(=O)N(c2cccc(F)c2)C1)C(=O)c1c[nH]c2ccccc12 (stereo not given) | inconclusive [inhibitor, full curve, poor fit] | – |
